Laboratory results published in the supplement of paper PMC8821664.
Counter-ions that a name gives are not always drawn. The list shows a part of the results. Most values come without repeats; read them as rough.

Tested on: Beas-2B AQP5-HiBiT reporter cells
Experiment: AQP5-HiBiT luminescence relative to vehicle (ratio to vehicle); higher = higher AQP5-HiBiT protein abundance
Conditions: 10 µM; 18 h
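Further: monoclonal Beas-2B line stably carrying CMV promoter-driven AQP5-HiBiT, 5,000 cells per well in 384-well plates, lytic HiBiT plus LgBiT NanoLuc luminescence, FDA-approved drug library screen.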

Compound	AQP5-HiBiT luminescence
Cc1cc(C)cc(OCC2CNC(=O)O2)c1 (configuration not stated) [Metaxalone]	0.977
CC(=O)Oc1ccccc1C(=O)Nc1ncc([N+](=O)[O-])s1 [Nitazoxanide]	0.386
CCOC(=O)C1=C(COCCN)NC(C)=C(C(=O)OC)C1c1ccccc1Cl (configuration not stated) [Amlodipine Besylate]	1.35
CC(C)c1c(C(=O)Nc2ccccc2)c(-c2ccccc2)c(-c2ccc(F)cc2)n1CC[C@@H](O)C[C@@H](O)CC(=O)O [Atorvastatin Calcium]	0.704
Cc1onc(-c2ccccc2Cl)c1C(=O)N[C@@H]1C(=O)N2[C@@H]1SC(C)(C)[C@@H]2C(=O)O [Cloxacillin sodium monohydrate]	0.975
CC(C)(C)NC(=O)[C@H]1CC[C@H]2[C@@H]3CC[C@H]4NC(=O)C=C[C@]4(C)[C@H]3CC[C@]12C [Finasteride]	0.913
CC(C)C[C@H](NC(=O)CNC(=O)c1cc(Cl)ccc1Cl)B(O)O [MLN2238(Ixazomib)]	37.3
O=C1CCC(N2C(=O)c3ccccc3C2=O)C(=O)N1 (configuration not stated) [Thalidomide]	0.756
CCCCOc1cc(C(=O)NCCN(CC)CC)c2ccccc2n1 [Dibucaine hydrochloride]	0.884
CC(=O)OCC[N+](C)(C)C [Acetylcholine chloride]	1.11
CC(=O)[C@@]1(O)CC[C@H]2[C@@H]3CCC4=CC(=O)CC[C@]4(C)[C@H]3CC[C@@]21C [Hydroxyprogesterone]	1.04
C#C[C@]1(O)CC[C@H]2[C@@H]3CCC4=C(CCC(=O)C4)[C@H]3CC[C@@]21C [Norethynodrel]	0.836
